# From the supplement of paper PMC10338343
# ± gives the standard deviation. The list shows a part of the results, in another mix than the full data.
# System: MIWI (PIWIL1) piRISC loaded with piRNA #1 (30 nt)
# Assay: pre-steady-state target cleavage rate (min^-1); MIWI and MILI are mouse PIWI proteins and EfPiwi is from a freshwater sponge; tags in brackets are library labels; higher = faster piRNA-guided slicing of the target
# Conditions: guide: piRNA #1 5'p-UGAGGUAGUAGGUUGUAUAGUAUCCAGAGG; auxiliary factor: 500 nM mouse GTSF1
# Procedure, shortened: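 A transcribed, DNA-blocked target RNA library (0.1 nM) and 1 nM active affinity-purified piRISC bearing one synthetic guide were incubated in HEPES–potassium acetate buffer at 33 °C for 0–8 or 0–960 min, either with or without 500 nM GTSF1 partner protein. Uncleaved targets were sequenced, normalised to depth and to weakly complementary targets, and pooled over three trials, with k3 capped at 0.0001 min^-1. The pre-steady-state cleavage rate was derived with a burst-and-steady-state fit.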
row,Sequence,pre-steady-state target cleavage rate
1,GGAGACCUAACUAUACAUCCUACUACGUCA,0.338 ± 0.049
2,GGAGUGGAUACUAUACAACCUACUACCUCCA,1.63 ± 0.1
3,GGAGACCUAUGUAUAGAACCUACUACGUCA,0.022 ± 0.0052
4,GGAGAGGAAACUAUACAACCUAGUACCUCA,0.162 ± 0.037
5,GGAGUGGAUACUAUACAACCUACUACUCA,0.185 ± 0.028
6,GGACUGGAUACUAUACAACCAACUUCCUCA,0.00677 ± 0.0026
7,GGAGACGUUACAAUACAACCUACUACCUCA,0.765 ± 0.097
8,GGAGUGGAUACUAUACAACCUUCUACCUCA,0.656 ± 0.029
9,GGUCUGGAUACUAUAAAACCUACUACCUCA,1.6 ± 0.1
10,GGAGACCUAUGAUAACAACCUACUAGCUGA,< 0.0001
11,GGAGACGAUACUUUACAACCUACUACGUCA,0.497 ± 0.051
12,GCUCUGGAUAGUAUACAACCUACUACCUCA,1.04 ± 0.051
13,CCUCUGGAUAUCUAUACAACCUACUACCUCA,0.824 ± 0.05
14,GCUCUGGAUACUAUACAACCUACCUACCUCA,1.63 ± 0.091
15,GCUCAGGAUACUAUACAACCUACUACGUCA,0.866 ± 0.062
16,GCUCUGGAUACUAUACAACCUAGUACCUGA,0.104 ± 0.02
17,GCUCUGGAUACUAUUGUACCUACUACCUCA,0.109 ± 0.019
18,CCUCUGAGAUACUAUACAACCUACUACCUCA,0.572 ± 0.056
19,CCUCUGGAUACUAAACAUCCUACUACCUCA,1.52 ± 0.098
20,GGAGACCUAUGUAUACAAGCUUCUACCUCA,0.00411 ± 0.0032

row,Sequence,pre-steady-state target cleavage rate
1,GGACUCGAUACUAUACAACCUACUACGUCA,0.54 ± 0.052
2,CCUCUGGAUACUAUACUACGUACUACCUCA,0.587 ± 0.053
3,GGAGACCAUACUAUACAACCUACUACUCUCA,1.8 ± 0.12
4,GGUGUGGAUACAAUACAACCUACUACCUCA,1.71 ± 0.13
5,GGAGACCUAUGUAUAACAACCUACUACCUCA,0.00609 ± 0.0039
6,GGAGUGGAUACUAUACAACCUACAUACCUCA,0.836 ± 0.065
7,GGAGACCUAACUAAACAUCCUACUACCUCA,0.22 ± 0.08
8,GGAGAGGAUACUAUACAAGCUACUACCUGA,0.421 ± 0.032
9,GGAGACCUUACUAUACAACCUACCUACCUCA,1.16 ± 0.095
10,GCUCAGGAUACUAUACAACCUACUUCCUCA,0.776 ± 0.048
11,GGAGACCUAUGAUAUCAACCUAGAUCCUCA,< 0.0001
12,GGAGUGGAUUCUAUUCAACCUACUACCUCA,1.43 ± 0.094
13,GGUCUGGAUACGUAUACAACCUACUACCUCA,1.44 ± 0.081
14,GGUCUGGAUACUAUACAUCCUACUACCACA,1.36 ± 0.081
15,GGUCUGGAUACUAUACUACGUACUACCUCA,0.469 ± 0.049
16,GGAGACCUAUGUAUACAACUUACUACCUCA,0.0216 ± 0.0032
17,CCUCAGGAUACUAUACAACCUACUACCUGA,0.144 ± 0.034
18,GGAGACCUAUGUAUACGACCUACUACCUCA,0.0188 ± 0.0031
19,GGAGAGGAUACUAUACAUCCUACUACCUGA,0.0508 ± 0.014
20,GGAGACCUUACUAUACAACCUACUACGAGA,0.361 ± 0.071
